The values that follow come from article PMC5695791.

Where a chain is given by its changes, count along the chain named. Names may count otherwise. Results are given in words; binding and its absence hold for the method and conditions named. For some of these results: Binding seen in cells or lysates may run through a third protein. Some results given as binding are weak or reduced against the parent protein; the word gives no strength. For some of these results: Where a sequence is shown, tags or fusion partners need not be part of it.

In test [1] the target is T1, endogenous signal peptide peptidase of HEK293 cells (human (endogenous in HEK293)) (UniProt Q8TCT9).
T1 sequence: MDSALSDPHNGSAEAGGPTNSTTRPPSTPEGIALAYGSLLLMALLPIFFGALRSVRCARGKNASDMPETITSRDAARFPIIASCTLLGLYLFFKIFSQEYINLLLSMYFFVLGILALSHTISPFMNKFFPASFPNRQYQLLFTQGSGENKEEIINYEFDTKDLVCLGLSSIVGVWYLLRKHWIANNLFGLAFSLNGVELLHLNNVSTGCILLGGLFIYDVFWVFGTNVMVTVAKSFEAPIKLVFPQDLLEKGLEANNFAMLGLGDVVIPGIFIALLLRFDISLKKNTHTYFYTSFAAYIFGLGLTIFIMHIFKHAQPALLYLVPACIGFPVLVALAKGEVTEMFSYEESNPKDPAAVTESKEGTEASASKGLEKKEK
The test is described as follows: co-IP; fluorescent-protein-tagged partner overexpressed in HEK293 cells, normoxia or 48 h hypoxia (1% O2); endogenous SPP precipitated with rabbit anti-SPP and Protein A Sepharose at 4°C, washed with PBS; blot with anti-GFP.

Test [2] concerns the target T2, HA-tagged signal peptide peptidase, catalytically inactive mutant D219A (UniProt Q8TCT9).
T2 sequence: T1 sequence with D219A
Briefly: co-IP; HA-SPP variant and fluorescent-protein-tagged partner co-expressed in HEK293 cells under normoxia; cell extract (50 mM TEA, 1 mM EDTA, pH 7.4) precipitated with rabbit anti-HA and Protein A Sepharose at 4°C, washed with PBS; blot with anti-GFP; IgG control-antibody gave no signal.

In test [3] the target is T3, HA-tagged signal peptide peptidase, wild type (catalytically active) (UniProt Q8TCT9).
T3 sequence: T1 sequence
Described as above.

Test [4] has as its target T4, HA-tagged signal peptide peptidase, wild type (catalytically active), Q8TCT9.
T4 chain: T1 sequence
Briefly: SDS-PAGE and Western blot of uncooked cell extracts; HEK293 cell extracts in SDS sample-buffer not cooked to keep SPP homodimers at 95 kDa intact; blot with anti-HA or anti-SPP. The settings on record: remark: other sources report otherwise.

In test [5] the target is T5, endogenous signal peptide peptidase of HEK293 cells (human (endogenous in HEK293)), Q8TCT9.
T5 chain: T1 sequence
The description is as above. The settings on record: remark: other sources report otherwise.

Test [6] addresses T2, HA-tagged signal peptide peptidase, catalytically inactive mutant D219A. The test is described as above.
The target of test [7] is T3, HA-tagged signal peptide peptidase, wild type (catalytically active). Briefly: co-IP; YFP-HO-1-CFP co-expressed with HA-SPP in HEK293 cells; cell extracts made as described by Schrul et al.; precipitated with HA-antibody, blot with GFP-antibody.

B1: fluorescent protein fused biliverdin reductase (enzyme, UniProt P53004 3-296)
chain: AEPERKFGVVVVGVGRAGSVRMRDLRNPHPSSAFLNLIGFVSRRELGSIDGVQQISLEDALSSQEVEVAYICSESSSHEDYIRQFLNAGKHVLVEYPMTLSLAAAQELWELAEQKGKVLHEEHVELLMEEFAFLKKEVVGKDLLKGSLLFTAGPLEEERFGFPAFSGISRLTWLVSLFGELSLVSATLEERKEDQYMKMTVCLETEKKSPLSWIEEKGPGLKRNRYLSFHFKSGSLENVPNVGVNKNIFLKDQNIFVQKLLGQFSEKELAAEKKRILHCLGLAEEIQKYCCSRK
Regarding B1, the binding result in test [1], in test [2] and in test [3] was “no binding” in each case.

B2: fluorescent protein fused cytochrome P450 reductase (enzyme, UniProt P16435 1-677)
chain: MGDSHVDTSSTVSEAVAEEVSLFSMTDMILFSLIVGLLTYWFLFRKKKEEVPEFTKIQTLTSSVRESSFVEKMKKTGRNIIVFYGSQTGTAEEFANRLSKDAHRYGMRGMSADPEEYDLADLSSLPEIDNALVVFCMATYGEGDPTDNAQDFYDWLQETDVDLSGVKFAVFGLGNKTYEHFNAMGKYVDKRLEQLGAQRIFELGLGDDDGNLEEDFITWREQFWPAVCEHFGVEATGEESSIRQYELVVHTDIDAAKVYMGEMGRLKSYENQKPPFDAKNPFLAAVTTNRKLNQGTERHLMHLELDISDSKIRYESGDHVAVYPANDSALVNQLGKILGADLDVVMSLNNLDEESNKKHPFPCPTSYRTALTYYLDITNPPRTNVLYELAQYASEPSEQELLRKMASSSGEGKELYLSWVVEARRHILAILQDCPSLRPPIDHLCELLPRLQARYYSIASSSKVHPNSVHICAVVVEYETKAGRINKGVATNWLRAKEPAGENGGRALVPMFVRKSQFRLPFKATTPVIMVGPGTGVAPFIGFIQERAWLRQQGKEVGETLLYYGCRRSDEDYLYREELAQFHRDGALTQLNVAFSREQSHKVYVQHLLKQDREHLWKLIEGGAHIYVCGDARNMARDVQNTFYDIVAELGAMEHAQAVDYIKKLMTKGRYSLDVWS
Consider B2, for which the binding entry in test [1], in test [2] and in test [3] was “binds” in each case.

B3: HA-tagged signal peptide peptidase, wild type (catalytically active), Q8TCT9 1-377 (enzyme)
chain: T1 sequence
B3: the binding entry in test [4] is on record as “binds”.

B4: endogenous signal peptide peptidase of HEK293 cells, Q8TCT9 1-377 (enzyme)
chain: T1 sequence
For the molecule B4, in test [5], the binding result is on record as “binds”.

B5: HA-tagged signal peptide peptidase, catalytically inactive mutant D219A (enzyme, UniProt Q8TCT9 1-377)
chain: T1 sequence with D219A
Consider B5, for which the binding entry in test [6] was “binds”.

B6: GFP-tagged wild type heme oxygenase-2 (enzyme, UniProt P30519 1-316)
chain: MSAEVETSEGVDESEKKNSGALEKENQMRMADLSELLKEGTKEAHDRAENTQFVKDFLKGNIKKELFKLATTALYFTYSALEEEMERNKDHPAFAPLYFPMELHRKEALTKDMEYFFGENWEEQVQCPKAAQKYVERIHYIGQNEPELLVAHAYTRYMGDLSGGQVLKKVAQRALKLPSTGEGTQFYLFENVDNAQQFKQLYRARMNALDLNMKTKERIVEEANKAFEYNMQIFNELDQAGSTLARETLEDGFPVHDGKGDMRKCPFYAAEQDKGALEGSSCPFRTAMAVLRKPSLQFILAAGVALAAGLLAWYYM
B6: the binding entry in test [1], in test [2] and in test [3] was “binds” each time.

B7: GFP-tagged wild type heme oxygenase-1 (enzyme, UniProt P09601 1-288)
chain: MERPQPDSMPQDLSEALKEATKEVHTQAENAEFMRNFQKGQVTRDGFKLVMASLYHIYVALEEEIERNKESPVFAPVYFPEELHRKAALEQDLAFWYGPRWQEVIPYTPAMQRYVKRLHEVGRTEPELLVAHAYTRYLGDLSGGQVLKKIAQKALDLPSSGEGLAFFTFPNIASATKFKQLYRSRMNSLEMTPAVRQRVIEEAKTAFLLNIQLFEELQELLTHDTKDQSPSRAPGLRQRASNKVQDSAPVETPRGKPPLNTRSQAPLLRWVLTLSFLVATVAVGLYAM
Turning to B7, the binding result in test [1] and in test [2] was “binds” throughout.

B8: GFP-tagged HO-1 anchor mutant SF275/276AL (enzyme, UniProt P09601 1-288)
chain: B7 chain with S275A, F276L
In the case of B8, the binding entry in test [3] is on record as “binds weakly”.

B9: double fluorescence-tagged HO-1 (YFP-HO-1-CFP) (enzyme, UniProt P09601 1-288)
chain: B7 chain
B9: the binding result in test [7] is “binds”.
